# Test results: PubChem BioAssay AID686978 (National Center for Advancing Translational Sciences (NCATS), 2013)
# Out of some 420,000 compounds screened, about 64,000 (15%) were called active. The inconclusive results got no clear call from the source; some entries with a clear call stand among them for comparison. Calls come from the whole dose curve; as a rule, active = well fitted inhibition curve with a large enough effect; inconclusive = small, poorly fitted or top-dose-only effect; inactive = flat fitted curve, though single readings scatter. No potency is given beside an inconclusive call; the fits are too rough.
# Test: qHTS for Inhibitors of human tyrosyl-DNA phosphodiesterase 1 (TDP1): qHTS in cells in absence of CPT; note: nearly all actives have a fitted effect of over 55% in size
# Conditions: DT40 Tdp1-/- hTDP1 cells, no CPT, ATP luminescence, 48 h; activity change, negative = growth inhibition: at 46.2 µM (top of the series) unless noted
# Procedure, shortened: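 Growth kinetics read by CellTiter-Glo luminescence after ≥48 hr at 37 °C. Cells: DT40 Tdp1-/- stably carrying human TDP1, 400 per well, compound exposure in the absence of CPT (DMSO vehicle).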
# % is set by controls: 0 for no effect and ±100 for the full control effect; potency is the fitted concentration of half-maximal effect; tags give direction and shape of the fitted curve.
SMILES,Potency,"activity change, negative = growth inhibition"
CN1CCN(c2ccc(Cl)cc2NC(=O)c2ccc(S(=O)(=O)N3CCCCCC3)cc2)CC1,active: 16.4 µM,–
CCOC(=O)c1nnn(-c2nonc2OC)c1-c1ccccc1,"inconclusive [inhibitor, full curve, poor fit]",–
Cc1ccc(-c2nn(-c3ccccc3)cc2/C=N/NS(=O)(=O)c2ccccc2)cc1,"inconclusive [inhibitor, single point]",–
C=CCN1C(=O)CSc2ccc(C(=O)NCCC3=CCCCC3)cc21,"inconclusive [inhibitor, single point]",–
Cc1ccc(NC(=O)N2CCCC2C(=O)NCCc2ccccc2)cc1 (stereo not drawn),–,inactive: 0.905%
C[C@@]12C(=O)OC(=O)[C@@]1(C)[C@@H]1CC[C@@H]2O1,active: 29.9 µM,–
COc1ccccc1OCc1ccc(C(=O)N2N=C(C(F)F)CC2(O)C(F)F)o1 (stereo not drawn),–,inactive: -27.1%
Cc1ccccc1NC(=O)CN(c1ccc(Cl)cc1Cl)S(=O)(=O)c1ccccc1,"inconclusive [inhibitor, single point]",–
COc1c2c(nc3occc13)C(CC=C(C)C)(OC)C(=O)C=C2 (stereo not drawn),"inconclusive [inhibitor, single point]",–
COC(=O)c1sc(NC(=O)c2c(OC)cccc2OC)c(C#N)c1C,–,inactive: -22.6%
O=C(NNc1c2ccccc2nc2ccccc12)c1ccc(O)cc1,"inconclusive [inhibitor, full curve]",–
CC1CCN(S(=O)(=O)c2cn(CC(=O)N3CCN(c4cccc(C(F)(F)F)c4)CC3)cn2)CC1,"inconclusive [inhibitor, partial curve]",–
C/C(=N\NC(=O)c1ccc2c(c1)OCCO2)c1ccccc1,–,inactive: 0.618%
Cc1ccc2c(c1)-c1c(c(C(=O)N3CCN(c4cc(Cl)ccc4C)CC3)nn1C)CS2,active: 18.4 µM,–
COc1ccc(NC(=O)COc2cccc3c2CCN(Cc2cccnc2)C3=O)cc1,"inconclusive [inhibitor, single point]",–
O=C(C[n+]1ccccc1)N/N=C/c1ccc(F)cc1,–,inactive: -17%
O=C(Nc1ccc2c(c1)C(=O)N(CC1CCCO1)C2=O)c1ccc(Cl)c(Cl)c1 (stereo not drawn),–,inactive: -0.545%
Cc1ccc(-n2c(CCc3nc4ccccc4[nH]3)n[nH]c2=S)cc1,"inconclusive [inhibitor, partial curve]",–
CN(CC(=O)Nc1ccc(Cl)cc1)C(=O)CCc1ccccc1,–,inactive: 3.05%
Cc1cn(C)c(CC(=O)N2CCN(c3ccccc3F)CC2)c1C(=O)O,–,inactive: -9.18%
Cc1cc(C)nc(SCC(=O)c2ccc(C)c(C)c2)n1,"inconclusive [inhibitor, single point]",–
CC(Oc1cccc(Cl)c1)C(=O)Nc1ccc(N2CCOCC2)cc1N1CCOCC1 (stereo not drawn),active: 13 µM,–
COc1ccc(-c2nc3sc(CCNC(=O)c4ccccc4C)c(C)n3n2)cc1,"inconclusive [inhibitor, single point]",–
COc1ccccc1Nc1nnc(SCC(=O)NC2CC2)s1,–,inactive: -15.8%
Cc1cc(C)n(CC(O)CN(c2ccccc2)S(=O)(=O)c2ccc3ccccc3c2)n1 (stereo not drawn),active: 23.1 µM,–

SMILES,Potency,"activity change, negative = growth inhibition"
COc1cccc(S(=O)(=O)Nc2ccc3c(c2)OCCO3)c1,"inconclusive [inhibitor, single point]",–
CN(Cc1c(F)cccc1Cl)C(=O)CNC(=O)c1ccc2c(c1)OCO2,"inconclusive [inhibitor, single point]",–
COc1ccc(CCNC(=O)c2cc3c(=O)n4ccccc4nc3n(CCCN3CCOCC3)c2=N)cc1,"inconclusive [inhibitor, single point]",–
CC(C)CN1CCN(Cc2cnc(-c3ccc(Cl)cc3)nc2)CC1CCO (stereo not drawn),"inconclusive [inhibitor, single point]",–
O=C(NCCc1ccccn1)c1nc(Cn2ccc([N+](=O)[O-])n2)no1,–,inactive: -4.29%
CN(C)C(=S)N=Nc1[nH]c2ccccc2c1O,active: 0.517 µM,–
O=C(Cn1nnc(-c2ccncc2)n1)NCCc1ccccc1,–,inactive: -13.1%
CCOc1ccccc1NC(=O)Cc1coc2cc(C)ccc12,"inconclusive [inhibitor, single point]",–
O=C(O)/C=C/C(=O)Nc1ccc(S(=O)(=O)Nc2nccs2)cc1,inactive,–
COc1ccccc1-c1sc2ccccc2c1C#CC1(O)CCCCC1,"inconclusive [inhibitor, single point]",–
COc1ccc2c(c1)CCc1cc(C(=O)N3CCN(c4ccc(N5CCOCC5)nn4)CC3)sc1-2,"inconclusive [inhibitor, single point]",–
COc1ccc(C(C(=O)NC(C)(C)C)N(C(=O)CCC(=O)Nc2cc(C)on2)c2ccc3c(c2)OCCO3)cc1 (stereo not drawn),"inconclusive [inhibitor, partial curve]",–
CC(C)CC(O)C1CCN(C(=O)CCc2nnc(-c3ccc4c(c3)OCO4)o2)CC1 (stereo not drawn),"inconclusive [inhibitor, single point]",–
COc1ccc(N2CCN(C3C(=O)Nc4ccccc4-n4nnnc43)CC2)cc1 (stereo not drawn),–,inactive: -25.7%
Cc1nc(NC(=S)NC(=O)c2ccccc2)sc1C(=O)N(C)C,–,inactive: -9.45%
Cc1cccc(C(=O)Nc2nnc(SCC(=O)Nc3ccc4c(c3)oc3ccccc34)s2)c1,"inconclusive [inhibitor, single point]",–
COc1cc(N2CCCC2)c(OC)cc1/C=C(/C#N)c1cccc(F)c1,"inconclusive [inhibitor, single point]",–
O=C(CSc1n[nH]c(=O)[nH]c1=O)N1CCCCCC1,"inconclusive [inhibitor, single point]",–
CCOc1ccc(S(=O)(=O)NCc2ccccn2)cc1NC(=O)c1ccccc1,active: 1.3 µM,–
Cc1ccc(-n2cc(CN3CCC(O)(c4ccccn4)CC3)c(-c3ccc(F)cc3)n2)cc1,"inconclusive [inhibitor, single point]",–
CCCCN(C)CCNC(=O)c1ccc2c(c1)NC(=O)CN2,"inconclusive [inhibitor, single point]",–
CC(CNC(=O)Cn1cnc2c(NCc3ccccc3)ncnc21)c1ccccc1 (stereo not drawn),–,inactive: -23.1%
CCc1ccccc1OCC(=O)Nc1ccc(C)c(S(=O)(=O)N2CCCCCC2)c1,"inconclusive [inhibitor, single point]",–
CCN(C)c1ccc(/C=C/c2ccnc3ccccc23)cc1,active: 11.2 µM,–
CCOc1cc(N2CCOCC2)c(OCC)cc1NC(=O)Cc1ccccc1OC,active: 18.4 µM,–

SMILES,Potency,"activity change, negative = growth inhibition"
CC1CCc2ccccc2N1C(=O)c1cccs1 (stereo not drawn),"inconclusive [inhibitor, partial curve, poor fit]",–
Cc1cccc(C(=O)Nc2nc(-c3nnn(-c4cc(F)ccc4F)c3C)ns2)c1,"inconclusive [inhibitor, single point]",–
Cc1cccn2c(=O)c3cc(C(=O)N(Cc4ccccc4)C(C)C)sc3nc12,active: 20.6 µM,–
COc1ccc(C2/C(=C(/O)c3ccccc3)C(=O)C(=O)N2C)c(OC)c1 (stereo not drawn),–,inactive: -1%
Cc1ccc(C(=O)c2coc3ccc(O)cc23)cc1,"inconclusive [inhibitor, single point]",–
CN(C)c1ccnc(Oc2ccc(C(C)(C)C)cc2)c1C#N,active: 16.4 µM,–
CCOc1cccc(C(=O)Nc2ccc(NC(=O)c3cc4ccccc4o3)c(OC)c2)c1,"inconclusive [inhibitor, partial curve]",–
CC1CCc2cc(F)ccc2N1C(=O)CSc1nnc(-c2cccs2)n1C (stereo not drawn),–,inactive: -9.74%
CCOC(=O)c1cc(-c2ccc(F)cc2)n(CC(=O)NC(C)CC)c1C (stereo not drawn),"inconclusive [inhibitor, single point]",–
O=C1N=C(N2CCCCC2)S/C1=C\c1ccccc1F,"inconclusive [inhibitor, single point]",–
Cc1cc(C)n2[nH]c(=O)c(N=Nc3ccccc3)c2n1,–,inactive: 3.35%
Cc1ccc(C23CC4CC(CC(NC(=O)N5CCN(C)CC5)(C4)C2)C3)cc1,"inconclusive [inhibitor, single point]",–
CN1CCCC(C)(C(=O)Nc2ccc(-n3cccc3)cc2)C1 (stereo not drawn),–,inactive: -15.7%
CCOC(=O)c1ccccc1NC(=O)N1CCOc2ccc(Cl)cc21,"inconclusive [inhibitor, single point]",–
Cc1c(Cl)cnc(NC(=O)COC(=O)CCc2nc3ccccc3s2)c1Cl,–,inactive: 21%
Cc1cc(Cl)ccc1NC(=O)C1CCN(c2nnc(-n3c(C)ccc3C)s2)CC1,active: 20.6 µM,–
COc1cccc(CC(=O)n2nc(N)c3cc4ccc(OC)cc4nc32)c1,–,inactive: -26.9%
COc1ccccc1N1CCN(C(=O)c2ccc(Cn3c(=S)[nH]c4cc5c(cc4c3=O)OCO5)cc2)CC1,"inconclusive [inhibitor, single point]",–
Cc1cccc(NC(=O)c2cc[n+]([O-])cc2)c1C,–,inactive: 4.75%
CC(=O)Nc1ccc(S(=O)(=O)N2CCN(C(=O)C3COc4ccccc4O3)CC2)cc1 (stereo not drawn),"inconclusive [inhibitor, single point]",–
Cc1cccc(C(=O)NCC2CCN(C(=O)c3cccc(C)c3)CC2)c1,"inconclusive [inhibitor, single point]",–
O=C1CCC[C@@H]2C[C@@]3(C[C@@H]4CCN1[C@H]24)Nc1cc([N+](=O)[O-])ccc1NC3=NCc1ccccc1,"inconclusive [inhibitor, single point]",–
COc1ccc(CCN(C)CC(O)COc2ccc(C(C)=O)cc2OC)cc1OC (stereo not drawn),–,inactive: -25.3%
